US20250002557A1 (SUZHOU LIGHT FERRY BIOMED, published 2025)
Values joined by “and” are separate entries in the source; they are usually repeats but may differ in a detail not shown here. Equal values may be shown once.

Columns and labels:
VEGF-A165 [1] = biological target: T1, VEGF-A165 (UniProt P15692-4 27-191); assay: blocking ELISA, VEGF-A165 to VEGFR2 (Example 13)
T1 construct: Bought reagent
T1 sequence (looked up): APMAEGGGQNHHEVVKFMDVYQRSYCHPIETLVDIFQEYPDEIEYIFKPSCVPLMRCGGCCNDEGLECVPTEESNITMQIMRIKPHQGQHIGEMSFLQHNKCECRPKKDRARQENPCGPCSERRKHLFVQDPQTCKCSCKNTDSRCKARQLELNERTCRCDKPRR

VEGF-D [2] = biological target: T2, VEGF-D (UniProt O43915 89-205, limits assumed); assay: blocking ELISA, VEGF-D-His to coated VEGFR3-Fc
T2 construct: Bought reagent
T2 sequence (looked up): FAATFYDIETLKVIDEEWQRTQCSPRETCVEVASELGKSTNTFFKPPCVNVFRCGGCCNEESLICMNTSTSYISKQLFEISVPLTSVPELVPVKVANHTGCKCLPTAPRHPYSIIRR
Method: (§1) During the blocking period, each recombinant receptor molecule was serially diluted from high to low concentrations, mixed evenly with 10 ng/well of VEGF-C or 500 ng/well of VEGF-D (both labeled with His-tag), allowing for incubation at room temperature for 30 minutes. […] The plates were washed with PBST, then TMB was added for color development, terminated with 5% hydrochloric acid solution, and finally, the OD values at 450 nm were read using a microplate reader.

PDGF-CC = biological target: T3, PDGF-CC (UniProt Q9NRA1 235-345); assay: SPR, PDGF coupled to CM5 chip, trap in flow
T3 construct: Bought reagent
Text: (§2) Nevertheless, it was found in the preliminary detection experiments that PDGF family molecules (purchased from R&D Systems Inc.) were prone to produce non-specific binding in the chip, resulting in a pseudo-elevation in measured values, such that the detection could not be completed. Therefore, PDGF-AA, PDGF-AB, PDGF-BB and PDGF-CC molecules were separately loaded through a coupling reaction on a CM5 chip, followed by influx of the recombinant receptor molecules, thus effectively eliminating the impact of non-specific binding on affinity determination.

PDGF-AA = biological target: T4, PDGF-AA (UniProt P04085 87-211); assay: SPR, PDGF coupled to CM5 chip, trap in flow
T4 construct: Bought reagent
Text: as §2

PDGF-AB = biological target: T5, PDGF-AB (UniProt P04085 87-211; P01127 82-190); assay: SPR, PDGF coupled to CM5 chip, trap in flow
T5 construct: Bought reagent
Text: as §2

VEGF-A165 [3] = biological target: T1, VEGF-A165; assay: ELISA, coated VEGF-A 165, anti-human Fc-HRP
VEGF-D [4] = biological target: T2, VEGF-D; assay: blocking ELISA, VEGF-D-His to coated VEGFR2-Fc; row head prints uM, ng/ml row implies nM
Method: as §1, with “100” for “10”, “or” for “or 500 ng/well of”, “then anti-polyhistidine secondary antibody conjugated with horseradish peroxidase was added to allow for incubation and binding at room temperature for 1 hour. Then the plates were washed with PBST,” for “then”

VEGF-C [5] = biological target: T6, VEGF-C (UniProt P49767 112-227, limits assumed); assay: blocking ELISA, VEGF-C-His to coated VEGFR3-Fc
T6 construct: Bought reagent
T6 sequence (looked up): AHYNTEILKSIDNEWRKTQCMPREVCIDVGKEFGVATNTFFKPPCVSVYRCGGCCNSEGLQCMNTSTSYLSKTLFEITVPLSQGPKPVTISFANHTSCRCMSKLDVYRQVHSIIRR
Method: as §1

VEGF-D [6] = biological target: T2, VEGF-D; assay: blocking ELISA, VEGF-D to VEGFR2 (Example 13)
VEGF-A 121 [7] = biological target: T7, VEGF-A 121 (UniProt P15692-9 27-147); assay: blocking ELISA, VEGF-A 121-His to coated VEGFR2-Fc
T7 construct: Bought reagent
T7 sequence (looked up): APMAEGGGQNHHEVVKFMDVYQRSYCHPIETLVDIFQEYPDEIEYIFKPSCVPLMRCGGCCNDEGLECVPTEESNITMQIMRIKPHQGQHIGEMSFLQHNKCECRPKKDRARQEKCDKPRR

PDGF-BB = biological target: T8, PDGF-BB (UniProt P01127 82-190); assay: SPR, PDGF coupled to CM5 chip, trap in flow; row label printed PDGF-BR
T8 construct: Bought reagent
Text: as §2

VEGF-A165 [8] = biological target: T1, VEGF-A165; assay: blocking ELISA, VEGF-A 165-His to coated VEGFR2-Fc; row head prints uM, paragraph 129 and ng/ml row give nM
VEGF-A165 [9] = biological target: T1, VEGF-A165; assay: ELISA binding to VEGF-A165, absorbance 450 nm
VEGF-C [10] = biological target: T6, VEGF-C; assay: ELISA binding to VEGF-C, absorbance 450 nm
VEGF-D [11] = biological target: T2, VEGF-D; assay: blocking ELISA, VEGF-D-His to coated VEGFR2-Fc
Method: as §1, with “100” for “10”, “or” for “or 500 ng/well of”, “then anti-polyhistidine secondary antibody conjugated with horseradish peroxidase was added to allow for incubation and binding at room temperature for 1 hour. Then the plates were washed with PBST,” for “then”

VEGF-C [12] = biological target: T6, VEGF-C; assay: ELISA, coated VEGF-C, anti-human Fc-HRP
VEGF-A165 [13] = biological target: T1, VEGF-A165; assay: blocking ELISA, VEGF-A 165-His to coated VEGFR2-Fc
VEGF-C [14] = biological target: T6, VEGF-C; assay: blocking ELISA, VEGF-C to VEGFR2 (Example 13)
VEGF-A 121 [15] = biological target: T7, VEGF-A 121; assay: ELISA, coated VEGF-A 121, anti-human Fc-HRP
VEGF-C [16] = biological target: T6, VEGF-C; assay: blocking ELISA, VEGF-C-His to coated VEGFR2-Fc
Method: as §1, with “100” for “10”, “or” for “or 500 ng/well of”, “then anti-polyhistidine secondary antibody conjugated with horseradish peroxidase was added to allow for incubation and binding at room temperature for 1 hour. Then the plates were washed with PBST,” for “then”

VEGF-C [17] = biological target: T6, VEGF-C; assay: blocking ELISA, VEGF-C-His to coated VEGFR3-Fc; row head prints uM, ng/ml row implies nM
Method: as §1

VEGF-D [18] = biological target: T2, VEGF-D; assay: blocking ELISA, VEGF-D to VEGFR3 (Example 13)
VEGF-D [19] = biological target: T2, VEGF-D; assay: ELISA binding to VEGF-D, OD450

Sequence of PDGF-BB (P01127 82-190): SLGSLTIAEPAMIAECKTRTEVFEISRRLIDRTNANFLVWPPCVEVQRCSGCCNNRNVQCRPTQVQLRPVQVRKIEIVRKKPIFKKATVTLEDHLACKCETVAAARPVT
Sequence of PDGF-AB (P01127 82-190, chain 2 of 2, other chains not shown): as the sequence (P01127 82-190) above
Sequence of PDGF-CC (Q9NRA1 235-345): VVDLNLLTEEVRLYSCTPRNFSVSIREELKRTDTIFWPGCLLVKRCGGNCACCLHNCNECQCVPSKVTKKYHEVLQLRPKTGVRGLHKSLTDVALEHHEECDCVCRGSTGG

B1: LFV-C Recombinant receptor molecule (Fc fusion)
chain: SPFIASVSDQHGVVYITENKNKTVVIPCLGSISNLNVSLCARYPEKRFVPDGNRISWDSKKGFTIPSYMISYAGMVFCEAKINDESYQSIMYIVVVVGYRIYDVVLSPSHGIELSVGEKLVLNCTARTELNVGIDFNWEYPSSKHQHKKLVNRDLKTQSGSEMKKFLSTLTIDGVTRSDQGLYTCAASSGLMTKKNSTFVRVHEKGPG[here human IgG1 Fc without letters]
EC50 (VEGF-A165 [1]): 3.18 nM
EC50 (VEGF-D [2]): 0.125 µg/mL and 1.25 nM
Kd (PDGF-CC): 60 nM
Kd (PDGF-AA): 19.4 nM
koff (PDGF-AA): 0.000664 s⁻¹
kon (PDGF-AA): 34200 M⁻¹ s⁻¹
Kd (PDGF-AB): 29.6 nM
koff (PDGF-AB): 0.00086 s⁻¹
kon (PDGF-AB): 29000 M⁻¹ s⁻¹
EC50 (VEGF-A165 [3]): 0.0126 µg/mL and 0.126 nM
EC50 (VEGF-D [4]): 340 nM
EC50 (VEGF-C [5]): 0.106 µg/mL
EC50 (VEGF-D [6]): 2.3 nM
EC50 (VEGF-A 121 [7]): 0.935 µg/mL and 9.35 nM
Kd (PDGF-BB): 20.1 nM
koff (PDGF-BB): 0.000551 s⁻¹
kon (PDGF-BB): 26700 M⁻¹ s⁻¹
EC50 (VEGF-A165 [8]): 4.57 µM
EC50 (VEGF-A165 [9]): 0.128 nM
EC50 (VEGF-C [10]): 0.476 nM
EC50 (VEGF-D [11]): 0.034 µg/mL
EC50 (VEGF-C [12]): 0.24 nM and 0.0242 µg/mL
EC50 (VEGF-A165 [13]): 0.457 µg/mL
EC50 (VEGF-C [14]): 26.2 nM
EC50 (VEGF-A 121 [15]): 0.476 nM and 0.0476 µg/mL
EC50 (VEGF-C [16]): 2.25 µg/mL and 22.5 nM
EC50 (VEGF-C [17]): 1060 nM
EC50 (VEGF-D [18]): 2.62 nM
EC50 (VEGF-D [19]): 11.6 nM
